Here are results for 153 variants from a collection of fitness landscapes (doi:10.1126/science.1257360).

This is one part of the list. Where only a bound is given, the exact number is not on record here.

B1: PhoQ; a variant is named by its letters at X, in order, P23837 (parent)
chain: MKKLLRLFFPLSLRVRFLLATAAVVLVLSLAYGMVALIGYSVSFDKTTFRLLRGESNLFYTLAKWENNKLHVELPENIDKQSPTMTLIYDENGQLLWAQRDVPWLMKMIQPDWLKSNGFHEIEADVNDTSLLLSGDHSIQQQLQEVREDDDDAEMTHSVAVNVYPATSRMPKLTIVVVDTIPVELKSSYMVWSWFIYVLSANLLLVIPLLWVAAWWSLRPIEALAKEVRELEEHNRELLNPATTRELTSLVRNLNRLLKSERERYDKYRTTLTDLTHSLKTPLXXLQXXLRSLRSEKMSVSDAEPVMLEQISRISQQIGYYLHRASMRGGTLLSRELHPVAPLLDNLTSALNKVYQRKGVNISLDISPEISFVGEQNDFVEVMGNVLDNACKYCLEFVEISARQTDEHLYIVVEDDGPGIPLSKREVIFDRGQRVDTLRPGQGVGLAVAREITEQYEGKIVAGESMLGGARMEVIFGRQHSAPKDE

The variants in the assay derive from B1. Briefly: enrichment ratio after two sorts for PhoP signalling (ratio (wild type AVST 3.29)); higher = more functional. Particulars: with PhoP (E. coli).
In the case of SGIT, the enrichment ratio worked out at 5.85.

In the case of IHPR, the enrichment ratio is at most 0.25.

Turning to KSVN, the enrichment ratio was at most 0.25.

Turning to RDFQ, the enrichment ratio was at most 0.25.

Take HPPM: the enrichment ratio was at most 0.25.

As to HMFP, the enrichment ratio is at most 0.25.

As for PQHK, the enrichment ratio is at most 0.25.

Take PDQM: the enrichment ratio was at most 0.25.

For TWIT, the enrichment ratio was at most 0.25.

Consider EERY, for which the enrichment ratio is at most 0.25.

Take GTCQ: the enrichment ratio is 13.4.

Turning to DHQS, the enrichment ratio is at most 0.25.

Take AWDC: the enrichment ratio is at most 0.25.

On to YDNT, for which the enrichment ratio is at most 0.25.

As for RPWM, the enrichment ratio is at most 0.25.

Turning to VYMQ, the enrichment ratio is at most 0.25.

Regarding DVTH, the enrichment ratio is at most 0.25.

As to HHCA, the enrichment ratio was at most 0.25.

PWVS: the enrichment ratio is at most 0.25.

Regarding LGKK, the enrichment ratio was at most 0.25.

For INSI, the enrichment ratio is at most 0.25.

HKAQ: the enrichment ratio was at most 0.25.

In the case of EMAY, the enrichment ratio is at most 0.25.

In the case of FVYD, the enrichment ratio was at most 0.25.

On to FCWM, for which the enrichment ratio is at most 0.25.

As to GKCR, the enrichment ratio is at most 0.25.

TWTN: the enrichment ratio is at most 0.25.

On to HENI, for which the enrichment ratio is at most 0.25.

For the variant GQSA, the enrichment ratio was at most 0.25.

IMWE: the enrichment ratio was at most 0.25.

For the variant KPRY, the enrichment ratio is at most 0.25.

Take DVQW: the enrichment ratio is at most 0.25.

Take LYGH: the enrichment ratio was at most 0.25.

As for SKGS, the enrichment ratio was at most 0.25.

Regarding HQWQ, the enrichment ratio was at most 0.25.

As for VETW, the enrichment ratio was at most 0.25.

On to HKLT, for which the enrichment ratio is at most 0.25.

On to KRWY, for which the enrichment ratio was at most 0.25.

With PQWT, the enrichment ratio was at most 0.25.

Regarding LVWF, the enrichment ratio was at most 0.25.

As to DIVG, the enrichment ratio is at most 0.25.

Regarding HPQS, the enrichment ratio was at most 0.25.

QFMR: the enrichment ratio is at most 0.25.

As to PVCE, the enrichment ratio is at most 0.25.

For FTMN, the enrichment ratio came to 2.79.

For HSKI, the enrichment ratio is at most 0.25.

With AHKY, the enrichment ratio was at most 0.25.

In the case of MWHF, the enrichment ratio is at most 0.25.

As to FGTH, the enrichment ratio was at most 0.25.

Take KDML: the enrichment ratio is at most 0.25.

For QMNG, the enrichment ratio amounted to 38.7.

As to STRY, the enrichment ratio is at most 0.25.

Take TTGQ: the enrichment ratio was at most 0.25.

As to KIVE, the enrichment ratio was at most 0.25.

As for KIYV, the enrichment ratio is at most 0.25.

For the variant HSSI, the enrichment ratio is at most 0.25.

Turning to LHQA, the enrichment ratio is at most 0.25.

Consider QEGN, for which the enrichment ratio was at most 0.25.

With SYPR, the enrichment ratio was at most 0.25.

Consider QMWY, for which the enrichment ratio was at most 0.25.

Turning to IHEL, the enrichment ratio is at most 0.25.

For the variant RNIL, the enrichment ratio was at most 0.25.

As for NMLF, the enrichment ratio is at most 0.25.

On to WPIL, for which the enrichment ratio is at most 0.25.

For FKPY, the enrichment ratio was at most 0.25.

As to RVWF, the enrichment ratio was at most 0.25.

Turning to RNGS, the enrichment ratio was at most 0.25.

For the variant TMNN, the enrichment ratio was found to be 34.

With IEFV, the enrichment ratio was at most 0.25.

PHKG: the enrichment ratio was at most 0.25.

In the case of PDWD, the enrichment ratio was at most 0.25.

SWQH: the enrichment ratio was at most 0.25.

Regarding PLAY, the enrichment ratio was 0.252.

For FVHP, the enrichment ratio is at most 0.25.

Turning to SVTK, the enrichment ratio came out at 11.9.

For the variant LNWI, the enrichment ratio was at most 0.25.

For the variant LAIF, the enrichment ratio was at most 0.25.

Consider IWIH, for which the enrichment ratio was at most 0.25.

Consider TNPR, for which the enrichment ratio was at most 0.25.

Consider VTIK, for which the enrichment ratio was at most 0.25.

On to ITCY, for which the enrichment ratio was at most 0.25.

YDMY: the enrichment ratio was at most 0.25.

As to MPMK, the enrichment ratio was at most 0.25.

As for PYNY, the enrichment ratio was at most 0.25.

In the case of EKGT, the enrichment ratio was at most 0.25.

In the case of QPVS, the enrichment ratio is at most 0.25.

NVRC: the enrichment ratio was at most 0.25.

With LWLW, the enrichment ratio was at most 0.25.

LCFM: the enrichment ratio is at most 0.25.

Regarding KVVG, the enrichment ratio was at most 0.25.

On to YRYC, for which the enrichment ratio is at most 0.25.

For AMDS, the enrichment ratio is at most 0.25.

As to HLYA, the enrichment ratio is at most 0.25.

On to LMPN, for which the enrichment ratio is at most 0.25.

Take RFDD: the enrichment ratio was at most 0.25.

Take PVDN: the enrichment ratio was at most 0.25.

With DWPI, the enrichment ratio was at most 0.25.

YNVV: the enrichment ratio was at most 0.25.

On to KAAA, for which the enrichment ratio is at most 0.25.

WFEL: the enrichment ratio was at most 0.25.

RNQA: the enrichment ratio is at most 0.25.

Turning to GHWE, the enrichment ratio is at most 0.25.

Regarding VLND, the enrichment ratio was at most 0.25.

On to PYMV, for which the enrichment ratio is at most 0.25.

With PPKQ, the enrichment ratio was at most 0.25.

For the variant CPFY, the enrichment ratio was at most 0.25.

As for VYRG, the enrichment ratio was at most 0.25.

On to GQLH, for which the enrichment ratio turned out to be 1.67.

Regarding YFKY, the enrichment ratio is at most 0.25.

As to VTCK, the enrichment ratio was at most 0.25.

As to FDLK, the enrichment ratio is at most 0.25.

Take NISH: the enrichment ratio was at most 0.25.

Consider MDDC, for which the enrichment ratio is at most 0.25.

Consider QISP, for which the enrichment ratio is at most 0.25.

With YVFC, the enrichment ratio was at most 0.25.

Turning to GPMK, the enrichment ratio is at most 0.25.

Regarding LMNQ, the enrichment ratio is at most 0.25.

Regarding VRPE, the enrichment ratio is at most 0.25.

Regarding PASA, the enrichment ratio is at most 0.25.

Turning to YDWM, the enrichment ratio is at most 0.25.

For IKGE, the enrichment ratio was found to be 2.7.

Consider DEGL, for which the enrichment ratio was at most 0.25.

For NFQL, the enrichment ratio was at most 0.25.

On to NGTM, for which the enrichment ratio was at most 0.25.

On to MDWD, for which the enrichment ratio was at most 0.25.

With QDAL, the enrichment ratio is at most 0.25.

In the case of PYVG, the enrichment ratio was at most 0.25.

On to ERRA, for which the enrichment ratio is at most 0.25.

In the case of NHDW, the enrichment ratio is at most 0.25.

With FTVG, the enrichment ratio was at most 0.25.

In the case of YQKS, the enrichment ratio is at most 0.25.

Consider VVFP, for which the enrichment ratio is at most 0.25.

On to RCEY, for which the enrichment ratio is at most 0.25.

Take HMPG: the enrichment ratio was at most 0.25.

Consider PELT, for which the enrichment ratio was at most 0.25.

Regarding AATC, the enrichment ratio was at most 0.25.

Regarding GPRC, the enrichment ratio is at most 0.25.

As to QPVM, the enrichment ratio is at most 0.25.

For the variant RCNT, the enrichment ratio is at most 0.25.

As to TADW, the enrichment ratio was at most 0.25.

In the case of ETAR, the enrichment ratio was at most 0.25.

In the case of NPTD, the enrichment ratio was at most 0.25.

Consider LLTA, for which the enrichment ratio was at most 0.25.

In the case of SHLW, the enrichment ratio was at most 0.25.

As for WSQN, the enrichment ratio was at most 0.25.

In the case of MKIC, the enrichment ratio is at most 0.25.

Consider DPAH, for which the enrichment ratio was at most 0.25.

With SSRK, the enrichment ratio is at most 0.25.

Take VKKI: the enrichment ratio was at most 0.25.

With FGTE, the enrichment ratio was at most 0.25.

For the variant QAYQ, the enrichment ratio came to 10.7.

On to DSEE, for which the enrichment ratio was at most 0.25.

As to THRM, the enrichment ratio was at most 0.25.
